# Test results as given in article PMC4336329 (PLoS ONE, 2015).
# The whole screen tested about 310,000 compounds, of which about 2,200 (0.71%) showed an effect of 50% or more. The effect is printed as a negative number. Some of the results follow.
# Molecular target: human ether-à-go-go-related gene (hERG) potassium channel (human, UniProt Q12809)
# Assay: primary screen, population patch clamp on CHO cells stably expressing hERG
# human ether-à-go-go-related gene (hERG) potassium channel, sequence (Q12809 whole entry, looked up): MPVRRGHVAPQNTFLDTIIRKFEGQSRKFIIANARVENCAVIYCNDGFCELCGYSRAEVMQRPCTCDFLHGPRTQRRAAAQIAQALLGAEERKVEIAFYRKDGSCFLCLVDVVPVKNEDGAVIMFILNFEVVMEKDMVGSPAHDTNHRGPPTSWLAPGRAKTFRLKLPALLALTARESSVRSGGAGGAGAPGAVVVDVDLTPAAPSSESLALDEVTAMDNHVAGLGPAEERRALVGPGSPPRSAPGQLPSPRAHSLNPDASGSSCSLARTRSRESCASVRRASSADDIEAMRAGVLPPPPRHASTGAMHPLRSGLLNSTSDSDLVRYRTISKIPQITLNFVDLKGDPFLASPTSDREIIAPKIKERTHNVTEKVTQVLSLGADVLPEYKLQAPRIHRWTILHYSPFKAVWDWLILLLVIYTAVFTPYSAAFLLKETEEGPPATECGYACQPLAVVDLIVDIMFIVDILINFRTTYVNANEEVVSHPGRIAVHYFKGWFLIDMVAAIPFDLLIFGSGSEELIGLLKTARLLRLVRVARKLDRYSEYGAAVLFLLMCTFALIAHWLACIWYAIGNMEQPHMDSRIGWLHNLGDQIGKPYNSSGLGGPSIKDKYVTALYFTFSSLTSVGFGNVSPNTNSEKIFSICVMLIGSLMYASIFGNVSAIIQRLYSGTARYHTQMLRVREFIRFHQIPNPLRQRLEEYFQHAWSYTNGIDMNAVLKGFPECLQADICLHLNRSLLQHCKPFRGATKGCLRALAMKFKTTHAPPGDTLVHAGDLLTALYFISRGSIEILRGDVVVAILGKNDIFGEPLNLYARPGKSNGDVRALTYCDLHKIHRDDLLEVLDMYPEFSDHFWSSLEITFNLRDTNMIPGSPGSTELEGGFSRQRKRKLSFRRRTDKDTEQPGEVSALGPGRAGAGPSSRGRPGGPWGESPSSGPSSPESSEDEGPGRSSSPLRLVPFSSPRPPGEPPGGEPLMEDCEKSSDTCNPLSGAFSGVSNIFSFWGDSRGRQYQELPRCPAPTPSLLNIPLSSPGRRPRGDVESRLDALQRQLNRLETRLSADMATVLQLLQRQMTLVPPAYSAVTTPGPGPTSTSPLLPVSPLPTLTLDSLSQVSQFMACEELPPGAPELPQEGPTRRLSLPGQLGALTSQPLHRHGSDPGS
row,SMILES,"hERG current change (%, negative = inhibition) at 1uM"
1,CC(=O)N/C(=C/c1ccc2c(c1)OCO2)C(=O)N1CCOCC1,14.3%
2,CCOc1cccc(/C=N/NC(=O)C2CCCC2)c1O,12.3%
3,O=S(=O)(c1ccc(Oc2ccc(S(=O)(=O)N(CCO)CCO)cc2)cc1)N(CCO)CCO,10.5%
4,CC1(c2ccc(Cl)cc2)NC(=O)N(CC(=O)NCCC2=CCCCC2)C1=O (stereo not drawn),0.207%
5,C/C(=N\NC(=O)COc1cccc2ccccc12)c1cccs1,4.19%
6,COCCN(CC(=O)NCC1CCCO1)C(=O)CCC(=O)Nc1cc(C)on1 (stereo not drawn),11.7%
7,CC(Cc1ccccc1)NC(=O)C1(c2ccccc2)CCOCC1 (stereo not drawn),2.19%
8,Cc1ccnn1Cc1cc(C(=O)O)c2ccccc2n1,21.9%
9,COC(=O)c1c(NC(=O)CC2Sc3ccc(C(F)(F)F)cc3NC2=O)sc(C)c1C (stereo not drawn),0.367%
10,Cn1c(=O)c2c(ncn2CC(=O)N2CCN(c3ccccc3F)CC2)n(C)c1=O,2.35%
11,Cc1cc(-n2c(SCC(=O)NCc3cccs3)nc3n[nH]c(C)c3c2=N)ccc1Cl,8.41%
12,O=C(Nc1ccc(N2CCN(C(=O)c3cccs3)CC2)cc1)c1ccc(Br)o1,-52.7%
13,CSc1cccc(NC(=S)Nc2cc(C)ccc2C)c1,4.88%
14,COc1ccc(N2C(=NC(=O)C3CC3)SC3CS(=O)(=O)CC32)cc1Cl (stereo not drawn),7.85%
15,Cc1ccccc1-n1c(O)c(C=Nc2ccc(N(C)C)cc2)c(=O)[nH]c1=O,-10.6%
16,CC(C)NC(=O)NS(=O)(=O)c1cnccc1NC1CC2CCC1C2 (stereo not drawn),9.06%
17,CNC(=O)/C(C#N)=C/c1ccc(-c2nc3ccccc3s2)o1,11.2%
18,Cc1nc2ccc(NC(=O)Cc3ccc4c(c3)OCCO4)cc2s1,17.4%
19,O=C(COc1ccccc1O)c1cccs1,7.31%
20,Cc1ccc(NC(=O)CSCC(=O)Nc2ccc(S(=O)(=O)N3CCOCC3)cc2)cc1,11.4%
21,COCCN(CC(=O)NC1CCCCC1)C(=O)c1csnn1,8.94%
22,COc1ccc(C(=O)N/C(=C/c2ccco2)C(=O)NCc2ccco2)cc1,-0.769%
23,CN(C(=O)c1ccc(NC(=O)Cc2cccc(NC(=O)C3CCN(C(=O)C4CCCCC4)CC3)c2)cc1)C1CCCC1,11.3%

row,SMILES,"hERG current change (%, negative = inhibition) at 1uM"
1,COc1cc(Br)c(S(=O)(=O)Nc2c(C)n(C)n(-c3ccccc3)c2=O)cc1OC,11.1%
2,O=C(Cn1nc(-c2ccccc2)ccc1=O)N1CCC2(CC1)OCCO2,6.55%
3,Cn1c(=O)c2c(O)cc(=O)n(-c3ccccc3)c2n(C)c1=O,8.25%
4,CCOc1ccc(C(=O)NCC(=O)N2CCCCCCC2)cc1OCC,10.3%
5,O=C(Nc1nc2ccccc2s1)c1ccc([N+](=O)[O-])o1,16.3%
6,Cc1c(NC(=O)CC(=O)Nc2c(C)n(C)n(-c3ccccc3)c2=O)c(=O)n(-c2ccccc2)n1C,8.7%
7,CCCCN(CC)S(=O)(=O)c1ccc2c(c1)n(C)c(=O)c(=O)n2C,-13.2%
8,O=C(Oc1ccccc1N1C(=O)C2CC=CCC2C1=O)c1ccc(Br)cc1 (stereo not drawn),4.86%
9,CCOC(=O)Cn1nnnc1C(CC)N(Cc1cccs1)Cc1cc2cc(C)ccc2[nH]c1=O (stereo not drawn),2.11%
10,COc1cc2[nH]c(=S)n(NC(=O)c3ccccc3)c(=O)c2cc1OC,1.63%
11,Cc1[nH][nH]c(=O)c1C(c1ccc(Cl)cc1)c1c(C)[nH][nH]c1=O,12.5%
12,CCC(C)NC(=O)Cn1c(-c2ccccc2)cc(C(C)=O)c1C (stereo not drawn),5.71%
13,COc1ccc(CC(=O)OCC(=O)NCc2ccccc2Cl)cc1OC,8.74%
14,Cc1cc(-c2ccc(C(C)C)c(S(=O)(=O)N3CCN(c4ccccc4)CC3)c2)on1,-1.54%
15,O=C(c1ccc(S(=O)(=O)Nc2cccc(C(F)(F)F)c2)cc1)N1CCC1,13.8%
16,CCCC(=O)Nc1cc(-c2nc3ncccc3o2)ccc1Cl,12%
17,O=C(c1cnc(-c2ccc(Cl)cc2)s1)c1ccc(Cl)cc1Cl,14.1%
18,CCOCCOC(=O)CCSc1n[nH]c(=O)[nH]c1=O,1.89%
19,Cc1ccc(C(=O)Nc2ccccn2)cc1S(=O)(=O)N1CCOCC1,2.03%
20,Cc1ccc2c(C)nc(N/C(N)=N/S(=O)(=O)c3ccccc3)nc2c1,9.49%
21,CCOC(=O)c1c(NC(=O)COC(=O)c2ccc(Cl)nc2)sc(C(=O)N(C)C)c1C,9.71%
22,Cc1scc2c1N(C(=O)CN1CCN(C)CC1)c1ccccc1NC2=O,16.5%
